We go through 63 compounds from publication PMC6919601, “Identification of Plasmodium dipeptidyl aminopeptidase allosteric inhibitors by high throughput screening” (PLoS ONE, 2019).

Molecules are shown by their SMILES. Hit rate of the full screen: of about 110,000 compounds, about 230 (0.21%) showed an effect of 50% or more. The list shows a part of the results.
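Also: 30 min substrate incubation versus DMSO and 10 µM JCP410 controls.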

The target of the assay is DPAP1 (Plasmodium falciparum, UniProt Q8IIJ9). Briefly: primary screen, percent inhibition; read by cleavage of a fluorogenic dipeptide substrate; higher = more effect of the substance. Details: species or system P. falciparum D10 trophozoite lysates; single well.
Chain of DPAP1 (Q8IIJ9 whole entry, looked up): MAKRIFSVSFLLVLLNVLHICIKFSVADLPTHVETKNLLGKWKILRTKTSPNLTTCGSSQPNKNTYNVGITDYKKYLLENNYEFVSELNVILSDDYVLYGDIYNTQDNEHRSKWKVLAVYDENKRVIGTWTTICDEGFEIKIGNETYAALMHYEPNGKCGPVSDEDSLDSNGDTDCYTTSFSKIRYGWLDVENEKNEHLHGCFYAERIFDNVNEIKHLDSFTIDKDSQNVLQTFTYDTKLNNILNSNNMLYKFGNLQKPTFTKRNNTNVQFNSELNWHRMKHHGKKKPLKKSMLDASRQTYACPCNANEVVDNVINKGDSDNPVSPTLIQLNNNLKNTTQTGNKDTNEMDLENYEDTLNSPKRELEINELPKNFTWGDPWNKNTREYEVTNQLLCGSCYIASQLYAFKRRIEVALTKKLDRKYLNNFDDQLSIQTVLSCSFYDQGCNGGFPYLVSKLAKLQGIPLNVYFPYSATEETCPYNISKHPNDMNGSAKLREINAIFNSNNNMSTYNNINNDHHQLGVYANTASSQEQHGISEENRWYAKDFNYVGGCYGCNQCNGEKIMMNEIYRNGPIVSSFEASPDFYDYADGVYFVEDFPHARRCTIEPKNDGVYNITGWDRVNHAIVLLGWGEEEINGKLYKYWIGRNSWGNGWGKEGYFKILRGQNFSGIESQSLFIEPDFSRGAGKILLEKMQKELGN
As to `CC1=C(C#N)C(=O)N(C)C(=O)/C1=C\Nc1ccc(S(=O)(=O)N2CCOCC2)cc1`, the “% Inhibition @ 10 uM” value is given as -4.68%.

For `COc1ccc(/C=C/C(=O)O)cc1S(=O)(=O)N1CCCCCC1`, the “% Inhibition @ 10 uM” value is recorded as 9.21%.

For `CC(=O)Nc1ccc(C(=O)Nc2ccc(Cl)cc2)cc1`, the “% Inhibition @ 10 uM” value is given as 4.73%.

Take `COc1ccc(C(CC(=O)O)NC(=O)c2ccc(C)cc2)cc1` (stereo not drawn): the “% Inhibition @ 10 uM” value is 6.56%.

On to `COc1cc(-c2nc3n(n2)C(c2ccncc2)C(C(N)=O)=C(C)N3)cc(OC)c1OC` (stereo not drawn), for which the “% Inhibition @ 10 uM” value is recorded as -1.47%.

Consider `COCC(C)NC1CCc2ccccc2C1` (stereo not drawn), for which the “% Inhibition @ 10 uM” value is -1.81%.

On to `Cc1cc(OCC(=O)NCCO)cc(C)c1Cl`, for which the “% Inhibition @ 10 uM” value came to 0.343%.

With `N=C1/C(=C\c2ccc(OCCCOc3ccccc3)cc2)C(=O)N=C2SC(N3CCOCC3)=NN12`, the “% Inhibition @ 10 uM” value is recorded as -1.66%.

Turning to `CC(C)OCCC/N=c1/c(-c2ccccc2)c(O)c1=O`, the “% Inhibition @ 10 uM” value is -3.5%.

As to `O=C1/C(=C\c2cccs2)Sc2ccccc21`, the “% Inhibition @ 10 uM” value is -4.41%.

On to `COc1ccc(-c2nc(CS(=O)CC(=O)NCc3ccc(Cl)cc3)c(C)o2)cc1OC` (stereo not drawn), for which the “% Inhibition @ 10 uM” value is recorded as -2.85%.

Turning to `Cc1c(C(=O)NCc2ccccc2)oc2ccc(S(=O)(=O)N3CCCC(C)C3)cc12` (stereo not drawn), the “% Inhibition @ 10 uM” value is 3.33%.

Take `O=C(CCC(=O)c1ccc(F)cc1)NCc1ccccc1C(F)(F)F`: the “% Inhibition @ 10 uM” value is on record as 5.01%.

Consider `O=C(Nc1c(C(=O)Nc2ccc(Cl)cc2)cnn1-c1ccccc1)c1cccs1`, for which the “% Inhibition @ 10 uM” value was determined as 6.1%.

Take `NC(=O)C1CCN(CC2CC3C=CC2C3)CC1` (stereo not drawn): the “% Inhibition @ 10 uM” value is recorded as -2.34%.

On to `CCOC(=O)c1c(NC(=O)CSc2nnc(Cc3csc(N)n3)n2C)sc(C)c1C`, for which the “% Inhibition @ 10 uM” value is on record as -3.1%.

Take `CCOC(=O)C1=C(CS(=O)(=O)c2ccc(F)c(Cl)c2)NC(=O)NC1c1ccccc1OC` (stereo not drawn): the “% Inhibition @ 10 uM” value is given as -2.16%.

For `CCCC[C@H](NC(=O)C(CCC(=O)Nc1ccccc1)NC(=O)c1ccc(Br)cc1)C(=O)c1nc2ccccc2o1` (stereo partly drawn), the “% Inhibition @ 10 uM” value was 3.19%.

Consider `CCOc1ccc(NC(=O)c2c(O)c3ccccc3n(CC)c2=O)cc1`, for which the “% Inhibition @ 10 uM” value was determined as 14.3%.

`COc1ccc(NCC2CC=CCC2)cc1OC` (stereo not drawn): the “% Inhibition @ 10 uM” value is -2.95%.

With `CCOC(=O)N1CCN(S(=O)(=O)c2ccc(Cl)c(Cl)c2OC)CC1`, the “% Inhibition @ 10 uM” value was 2.5%.

As for `O=c1c(O)csc2ccccc12`, the “% Inhibition @ 10 uM” value is recorded as 0.032%.

In the case of `Cc1nnc(NC(=O)CSc2nnc(CNC(=O)c3cccs3)n2-c2ccc(F)cc2)s1`, the “% Inhibition @ 10 uM” value is on record as -1.3%.

Regarding `c1ccc(OCc2nn3c(-c4ccccc4)nnc3s2)cc1`, the “% Inhibition @ 10 uM” value is listed as 0.0539%.

As for `O=C(CCS(=O)(=O)c1ccc(Br)s1)NCCc1ccc(Cl)cc1`, the “% Inhibition @ 10 uM” value is recorded as 0.0654%.

On to `CC(C)N1CCN(Cc2ccccc2)CC1`, for which the “% Inhibition @ 10 uM” value is reported as -3.4%.

Take `CC1(C)Cc2ccccc2C2=C(C(=O)N3CCOCC3)C(=O)C(=O)N21`: the “% Inhibition @ 10 uM” value was -12.1%.

Turning to `O=C(NCc1ccccn1)C1CC2CCC1C2` (stereo not drawn), the “% Inhibition @ 10 uM” value is -0.402%.

In the case of `Cc1oc2ccc(O)c(CN3CCCC3)c2c1C(=O)NCc1ccccc1`, the “% Inhibition @ 10 uM” value is recorded as -6.72%.

As to `O=C(Cn1ccc2cc(S(=O)(=O)N3CCCC3)ccc21)NCc1cccc(Cl)c1`, the “% Inhibition @ 10 uM” value was -0.717%.

With `Cc1cc(C)cc(C(=O)N2CCN=C2c2ccccc2)c1`, the “% Inhibition @ 10 uM” value came out at 5.39%.

`CCOc1c(Br)cc(/C=C2\C(=O)ON=C2c2ccccc2)cc1OC`: the “% Inhibition @ 10 uM” value is -3.33%.

`CCc1ccc2ncc(S(=O)(=O)c3ccccc3)c(N3CCN(C)CC3)c2c1`: the “% Inhibition @ 10 uM” value is on record as -2.01%.

In the case of `O=S1(=O)c2cccc3cccc(c23)N1Cc1cc2c(cc1Cl)OCO2`, the “% Inhibition @ 10 uM” value is 4.61%.

As for `Cc1cccc2sc(NC(=O)CCn3cccc3)nc12`, the “% Inhibition @ 10 uM” value is reported as -2.45%.

As to `CCN(CC)CCCC(C)Nc1ncnc2c1cnn2C` (stereo not drawn), the “% Inhibition @ 10 uM” value is 4.46%.

Take `Cc1nc2scc(C)n2c(=O)c1S(=O)(=O)N1CCc2ccccc2C1`: the “% Inhibition @ 10 uM” value was -0.984%.

On to `Cc1ccc(-c2nn3c(C)nnc3c3ccccc23)cc1S(N)(=O)=O`, for which the “% Inhibition @ 10 uM” value was -1.24%.

Regarding `Cc1ccc(-c2nn3c(-c4ccco4)nnc3c3ccccc23)cc1`, the “% Inhibition @ 10 uM” value was determined as 0.366%.

As for `CC(CCN1CCCC1CO)c1ccccc1` (stereo not drawn), the “% Inhibition @ 10 uM” value is reported as 1.08%.

Turning to `N#Cc1c(-c2ccccc2)cc(-c2ccccc2)nc1SCC(=O)O`, the “% Inhibition @ 10 uM” value was -0.239%.

`O=C(c1ccc(-c2ccccc2)s1)N1CCN(Cc2ccccc2)CC1`: the “% Inhibition @ 10 uM” value worked out at 2.84%.

Take `Fc1ccc(-n2ncc3c(N4CCOCC4)ncnc32)cc1`: the “% Inhibition @ 10 uM” value is recorded as -4.46%.

As to `OCCN1CCN(C2Cc3ccc(F)cc3Sc3ccc(Cl)cc32)CC1` (stereo not drawn), the “% Inhibition @ 10 uM” value is 2.55%.

Take `O=C(Nc1cccc([N+](=O)[O-])c1)NS(=O)(=O)c1ccccc1Cl`: the “% Inhibition @ 10 uM” value is reported as -4.61%.

`CC1C(c2ccccc2)N(C)C(c2ccccc2)CC1(O)c1ccccc1` (stereo not drawn): the “% Inhibition @ 10 uM” value worked out at 1.13%.

Regarding `CCc1nn2c(=O)c(S(=O)(=O)N3CCN(c4ccccn4)CC3)c(C)nc2s1`, the “% Inhibition @ 10 uM” value is -3.41%.

Turning to `COc1ccccc1/N=C(/NS(=O)(=O)c1ccccc1)C(Cl)(Cl)Cl`, the “% Inhibition @ 10 uM” value is 0.343%.

As to `CC(=O)c1ccc(NS(=O)(=O)c2ccc(Oc3ccccc3C)cc2)cc1`, the “% Inhibition @ 10 uM” value is listed as -5.57%.

Turning to `COc1cccc(OC)c1C(=O)N1CCN(c2ccc(OCc3ccccc3)cc2)CC1`, the “% Inhibition @ 10 uM” value is given as -3.45%.

With `CC1=C(C(=O)N2CCOCC2)C(c2ccccc2OC(C)C)C2=C(O)CCCC2=N1` (stereo not drawn), the “% Inhibition @ 10 uM” value was -3.23%.

`COc1ccc(C(=O)Nc2cc(S(=O)(=O)c3ccccc3)c(O)c(C)c2C)cc1`: the “% Inhibition @ 10 uM” value was determined as 5.99%.

For the compound `COc1ccccc1C(=O)N1CCN(Cc2ccc(Cl)cc2)CC1`, the “% Inhibition @ 10 uM” value is recorded as -0.512%.

In the case of `Cc1c(C(=O)N2CCCC2)oc2c1-c1nn(CC(=O)NCCCN3CC(C)CC(C)C3)cc1CC2` (stereo not drawn), the “% Inhibition @ 10 uM” value is recorded as -0.517%.

For `CCSc1nc(C2CC2)cc(-c2ccc(Cl)cc2)c1C#N`, the “% Inhibition @ 10 uM” value was -0.294%.

For `O=S(=O)(c1ccccc1)c1cccc(S(=O)(=O)N2CCCCC2)c1`, the “% Inhibition @ 10 uM” value is 6.31%.

Turning to `N#CC1=C(N)OC2=C(C(=O)CC(c3ccco3)C2)C1c1c[nH]nc1-c1ccc(F)cc1` (stereo not drawn), the “% Inhibition @ 10 uM” value is 1.35%.

Turning to `COc1ccc(CCNc2nc3c(c(=O)n(C)c(=O)n3C)n2Cc2cccc(F)c2)cc1OC`, the “% Inhibition @ 10 uM” value turned out to be 3.06%.

As to `COC(=O)c1ccc(C(=O)N(CCN(C)C)c2nc3c(C)c(C)ccc3s2)cc1`, the “% Inhibition @ 10 uM” value is reported as -0.0871%.

Consider `O=C(Nc1cccc([N+](=O)[O-])c1)c1cccc(S(=O)(=O)Nc2ccccc2C(=O)O)c1`, for which the “% Inhibition @ 10 uM” value is -2.47%.

Turning to `O=C(NCc1ccccn1)Nc1cccc2ccccc12`, the “% Inhibition @ 10 uM” value is -2.41%.

`Clc1ccccc1N1CCN(Cc2ccc(Br)o2)CC1`: the “% Inhibition @ 10 uM” value is -5.57%.

`Cc1ccc2c(CNCCC3=CCCCC3)c(C(=O)O)n(Cc3ccc(F)cc3Cl)c2c1`: the “% Inhibition @ 10 uM” value is on record as 0.181%.
